{"source": "paper PMC10769071", "about": "“Methods optimization for the expression and purification of human calcium calmodulin-dependent protein kinase II alpha” (PLOS ONE, 2024)", "molecular_target": "the molecule itself", "test": "SEC; Superose 6 size-exclusion column; final buffer 20 mM HEPES pH 7.5, 200 mM NaCl; compared with a thyroglobulin standard at 660 kDa"}
{"protein": "full-length wild-type human calcium/calmodulin-dependent protein kinase II alpha (CaMKIIα), isoform B ([…]), from the baculovirus-insect expression system (enzyme, NLS serine residues (Ser332-Ser335) phosphorylated in 52-53% of the sample; not phosphorylated at Thr286, Thr305 or Thr306, Calcium/calmodulin-dependent protein kinase II alpha, human, isoform B ([…]; In the CaM-Sepharose step it was the pooled cation exchange eluate, not yet pure; also called BEVS CaMKII; CaMKIIα isoform 2; source: Tni insect cells (baculovirus, pFastBac), purified (Mono S or phosphocellulose cation exchange, CaM-Sepharose; Superose 6 before TEM); copies: 12) not shown", "values": [{"measurement": "stoichiometry N", "result": 12}]}
